# Laboratory results taken from PubChem BioAssay AID1030 (National Center for Advancing Translational Sciences (NCATS), 2008).
# Out of some 220,000 compounds screened, about 16,000 (7.3%) were called active. The shares of active, inactive and inconclusive entries below differ from those in the screen. Calls follow the shape of the dose curve; as a rule, active = well fitted inhibition curve with a large enough effect (not every such curve was filed as active); inconclusive = small, poorly fitted or top-dose-only effect, or another doubt; inactive = no such curve, though single readings can be large or run the other way. Potencies of inconclusive entries are left out as doubtful fits.
# Molecular target: Aldehyde dehydrogenase 1A1 (Homo sapiens) (UniProt P00352)
# UniProt P00352, sequence (P00352 whole entry, looked up): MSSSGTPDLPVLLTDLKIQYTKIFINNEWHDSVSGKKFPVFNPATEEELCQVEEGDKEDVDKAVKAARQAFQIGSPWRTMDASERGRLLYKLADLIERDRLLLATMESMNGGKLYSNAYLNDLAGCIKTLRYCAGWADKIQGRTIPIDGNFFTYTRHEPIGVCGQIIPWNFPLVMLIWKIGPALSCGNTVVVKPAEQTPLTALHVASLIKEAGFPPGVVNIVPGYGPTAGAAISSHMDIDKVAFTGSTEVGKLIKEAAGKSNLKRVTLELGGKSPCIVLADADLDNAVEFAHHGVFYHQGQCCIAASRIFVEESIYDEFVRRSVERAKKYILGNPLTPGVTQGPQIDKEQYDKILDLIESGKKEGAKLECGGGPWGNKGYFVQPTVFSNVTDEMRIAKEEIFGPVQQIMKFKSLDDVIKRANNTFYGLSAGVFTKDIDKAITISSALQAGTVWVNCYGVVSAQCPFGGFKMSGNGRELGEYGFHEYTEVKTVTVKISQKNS
# Assay: qHTS Assay for Inhibitors of Aldehyde Dehydrogenase 1 (ALDH1A1)
# Settings: Purified ALDH1A1, NADH fluorescence, propionaldehyde substrate; series mostly up to 75.3 µM
# Potency is read from the fitted curve at half-maximal effect; tags tell the direction and shape of the fitted curve.
row,Compound,Potency
1,CCOc1cc(NS(=O)(=O)c2ccc(OC)cc2)c(OCC)cc1NC(C)=O,"inconclusive [inhibitor, single point]"
